One assay addresses T1, human CTLA4 ECD.his (human, UniProt P16410 36-161).
T1 construct: extracellular domain; there neither species nor tag is stated; not shown: his tag
The assay can be described thus: ELISA, coated protein 2 µg/mL, antibody 10 µg/ml.

The target in a further assay is FGFR-ECD. Kind of assay: ELISA, coated protein 2 µg/mL, antibody 10 µg/ml. (In general: In an ELISA, binding on a coated surface is turned into a signal by an enzyme label.)
Assay [1] deals with T2, CD22.ECD (UniProt P20273 20-687, limits assumed).
T2 construct: extracellular domain
Kind of assay: ELISA, coated protein 2 µg/mL, antibody 10 µg/ml.

In the next assay the target is T3, Ag1.E.his.
T3 construct: Undisclosed protein
The assay can be described thus: ELISA, coated protein 2 µg/mL, antibody 10 µg/ml.

The target of assay [2] is T4, OX40.ECD (UniProt P43489 29-214).
T4 construct: extracellular domain
T4 sequence (looked up): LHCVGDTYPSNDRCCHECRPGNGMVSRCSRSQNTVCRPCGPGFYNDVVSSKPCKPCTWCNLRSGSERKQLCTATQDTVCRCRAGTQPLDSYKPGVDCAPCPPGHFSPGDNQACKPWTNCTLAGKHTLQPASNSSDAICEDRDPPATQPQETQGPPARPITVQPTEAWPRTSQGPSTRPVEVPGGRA
Kind of assay: ELISA, coated protein 2 µg/mL, antibody 10 µg/ml.

For assay [3], the target named is T5, 4-1BB.ECD (UniProt Q07011 24-186).
T5 construct: extracellular domain
The assay can be described thus: ELISA, coated protein 2 µg/mL, antibody 10 µg/ml.

Assay [4] concerns the target T6, CD3e.ECD (UniProt P07766 23-126, limits assumed).
T6 construct: extracellular domain
Kind of assay: ELISA, coated protein 2 µg/mL, antibody 10 µg/ml.

For a further assay, the target named is T7, XAg.ECD.
T7 construct: Undisclosed protein
The assay can be described thus: ELISA, coated protein 2 µg/mL, antibody 10 µg/ml.

In assay [5] the target is T2, CD22.ECD. The assay can be described thus: non-specific binding ELISA, coated protein 2 µg/mL.
Assay [6] deals with T4, OX40.ECD. The assay can be described thus: non-specific binding ELISA, coated protein 2 µg/mL.
Assay [7] addresses T5, 4-1BB.ECD. The assay can be described thus: non-specific binding ELISA, coated protein 2 µg/mL.
The target of assay [8] is T6, CD3e.ECD. Kind of assay: non-specific binding ELISA, coated protein 2 µg/mL.
The target of the next assay is T8, HER2-ECD (UniProt P04626 fragment, limits assumed).
T8 construct: extracellular domain
The assay can be described thus: ELISA on coated HER2-ECD [panel HER2].

The target of assay [9] is T9, mouse PD-1, full length, on cells (WBP305.293F.mPro1.B4) (mouse, UniProt Q02242 25-288).
T9 construct: whole, on cells; also called murine PD-1
T9 sequence (looked up): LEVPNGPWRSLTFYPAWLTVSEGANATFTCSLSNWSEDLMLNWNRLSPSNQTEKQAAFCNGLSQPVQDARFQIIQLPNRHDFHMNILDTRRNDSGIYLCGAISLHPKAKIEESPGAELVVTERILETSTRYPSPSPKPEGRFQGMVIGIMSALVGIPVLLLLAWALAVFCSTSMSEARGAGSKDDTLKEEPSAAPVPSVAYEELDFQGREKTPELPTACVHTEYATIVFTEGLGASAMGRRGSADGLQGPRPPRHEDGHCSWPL
Kind of assay: FACS on mouse PD-1 expressing 293F cells.

Assay [10] has as its target T9, mouse PD-1, full length, on cells …. The assay can be described thus: FACS-based competition, blocking of murine PD-1/PDL1 interaction.

Changes are numbered by the printed parent chain. Names and notes keep the numbering of the source.

B1: WBP336B = W336-T1U2.G10-4.uhIgG4.SP(dK) (bispecific antibody)
heavy: DVVMTQSPLSLPVTLGQPASISCRSSQSLLDSDGGTYLYWFQQRPGQSPRRLIYLVSTLGSGVPDRFSGSGSGTDFTLKISRVEAEDVGVYYCMQLTHWPYTFGQGTKLEIKGGGGSGGGGSGGGGSQVQLVQSGAEVKKPGSSVKVSCKASGFTFTTYYISWVRQAPGQGLEYLGYINMGSGGTNYNEKFKGRVTITADKSTSTAYMELSSLRSEDTAVYYCAILGYFDYWGQGTMVTVSSASTKGPSVFPLAPCSRSTSESTAALGCLVKDYFPEPVTVSWNSGALTSGVHTFPAVLQSSGLYSLSSVVTVPSSSLGTKTYTCNVDHKPSNTKVDKRV[human IgG4 Fc with S228P (EU numbers) not listed]
light: not shown
notes: EGFR x PD-1 bispecific; scFv-CH (IgG4 S228P) paired with scFv-CL (kappa); also called W336-T1U2.G10-4.uIgG4.SP(dk)
As to B1, the “absorbance at 450 nm” value was 0.51 A450 with human CTLA4 ECD.his; 0.37 A450 with FGFR-ECD; 0.21 A450 in the assay with CD22.ECD [1]; 0.31 A450 with Ag1.E.his; 0.2 A450 in the assay with OX40.ECD [2]; 0.62 A450 with 4-1BB.ECD [3]. The “absorbance at 450 nm” value came to 0.42 A450 in the assay with CD3e.ECD [4] and 0.24 A450 with XAg.ECD. The binding result with CD22.ECD [5] is “no binding (tested: 10 µg/ml)”; in the assay with OX40.ECD [6], “no binding (tested: 10 µg/ml)”; in the assay with 4-1BB.ECD [7] it was “no binding (tested: 10 µg/ml)”; with CD3e.ECD [8], “no binding (tested: 10 µg/ml)”; with HER2-ECD, “no binding”. The same molecule registered an EC50 in [9] of 7.11 nM. The same molecule showed an IC50 in assay [10] of 31.8 nM.

B2: WBP336C = W336-T1U3.G10-4.uhIgG4.SP(dK) (bispecific antibody)
heavy: B1 heavy with L226I
light: not shown
notes: EGFR x PD-1 bispecific; scFv-CH (IgG4 S228P) paired with scFv-CL (kappa); also called W336-T1U3.G10-4.uIgG4.SP(dk)
Take B2: the “absorbance at 450 nm” value was found to be 0.25 A450 with FGFR-ECD and 0.2 A450 in the assay with Ag1.E.his.

Usually EC50 stands for the concentration giving half of the maximal effect. High values mean weaker potency, low ones greater potency. The IC50 is the point on the concentration scale where inhibition reaches its midpoint.
